Data as given in PubChem BioAssay AID445 (National Center for Advancing Translational Sciences (NCATS), 2006).
Among all 110,000 compounds or so, about 40 (0.04%) were called active. The inconclusive results got no clear call from the source; some entries with a clear call stand among them for comparison. Calls follow the shape of the dose curve; as a rule, active = well fitted curve in the direction sought with a large enough effect in the signal ratio (not every such curve was filed as active); inconclusive = small, poorly fitted or top-dose-only effect, or a change in a side signal; inactive = flat fitted curve, though single readings scatter; the % refers to the signal ratio. A potency beside an inconclusive call is a rough fit, not a confirmed value.

Assay: IkB Signaling;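 as to IkBa stabilization activation: 0% = basal untreated cells and 100% = reference inhibitor full response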
Details: ABC-DLBCL IkBa-CBG/CBR dual luciferase ratio (green luciferase fused to IkBa over red control in OCI-Ly3 lymphoma cells), 4 h; IkBa stabilization activation: at 57.1 µM (top of the series), scaled: untreated 0%, proteasome inhibitor 100% unless noted
Method in brief: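 In this assay, an IκBα–CBG68 fusion accumulates when IKK-driven degradation is blocked; native CBR normalizes for cell number. OCI-Ly3 cells were treated 4 h with compound and doxycycline, then green and red light read after Chroma-Glo addition.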
Potency is read from the fitted curve at half-maximal effect.

Row | Structure (SMILES) | IkBa stabilization activation | Potency
1 | CCCc1cc(N2CCN(c3ccccc3)CC2)n2cnnc2n1 | inconclusive: 0.922% [signal inhibitor] | –
2 | CCc1ccc(CN(Cc2ccco2)c2cnc(S(C)(=O)=O)nc2C(=O)Nc2c(C)cccc2C)cc1 | inconclusive: 0.186% [signal inhibitor] | –
3 | CCc1ccccc1NCc1nnc2n1CCCCC2 | inconclusive: 0.783% [signal inhibitor] | –
4 | Cc1cc(C)nc(N(C#N)CC(=O)c2ccccc2)n1 | inconclusive: 1.79% [signal inhibitor] | –
5 | CCN(C(=O)CSc1nnc(-c2cc(OC)c(OC)c(OC)c2)o1)c1ccccc1 | inactive | –
6 | Clc1ccc(CCNc2nc3ccccc3c3nc(-c4ccccc4)nn23)cc1 | inconclusive: 2.9% [signal inhibitor] | –
7 | Cc1ccc(C(=O)N(Cc2ccco2)Cc2ccco2)cc1 | inconclusive: 2.69% [signal inhibitor] | –
8 | CC(C)C(OC(=O)c1ccco1)C(=O)NCc1ccccc1 (stereo unspecified) | inactive | –
9 | COc1cccc2sc(N3CCN(c4nc5ccccc5s4)CC3)nc12 | inactive | –
10 | CCOc1cccc(CC(=O)NCc2ccc3c(c2)CCN3C(=O)c2ccc(F)cc2)c1OCC | inactive | –
11 | CCOc1ccc(NC(=O)Cn2cc(C(=O)c3cccs3)c3ccccc32)cc1 | inconclusive: 12.9% [signal inhibitor] | –
12 | CN(C)CCNS(=O)(=O)N(C)C | inactive: -0.25% [at 11.4 µM, scaled: untreated 0%, proteasome inhibitor 100%] | –
13 | Cc1ccc(-c2ccc(OCC(=O)N3CCOCC3)cc2)cc1 | inactive | –
14 | COc1cccc(CCNC(=O)c2cnc3sc(N4CCCCCC4)nn3c2=O)c1 | inconclusive: -0.292% [signal inhibitor] | –
15 | O=C(Nc1ccc2oc(-c3cccnc3)nc2c1)c1ccc(-c2cccc(Cl)c2)o1 | inactive | –
16 | COc1cc(NC(=O)CC2C(=O)N(c3cccc(C)c3)C(=O)N2Cc2ccco2)cc(OC)c1 (stereo unspecified) | inactive | –
17 | Clc1ccc(OCCCc2nc(-c3cccnc3)no2)c(Cl)c1 | inconclusive: -2.34% [signal inhibitor] | –
18 | COc1ccc(S(=O)(=O)c2c(Nc3c(C)cccc3C)sc(C(=O)c3ccc4c(c3)OCO4)c2N)cc1 | inconclusive: 2.58% [signal activator] | –
19 | Cc1ccc(-n2nc3c(=O)n(CC(=O)NC(C)C)nc(C)c3c2C)cc1 | inactive | –
20 | Cc1cccc(Nc2nc(N)nc(CN3CCN(c4ccc(F)cc4)CC3)n2)c1 | inconclusive: 2.15% [signal inhibitor] | –
21 | O=C(CSc1nnc(CNc2ccc(F)cc2)n1Cc1ccco1)N1CCCC1 | inconclusive: 2.48% [signal inhibitor] | –
22 | CS(=O)(=O)c1ncc(Cl)c(C(=O)Nc2c(C(=O)Nc3ccccc3)oc3ccccc23)n1 | inconclusive: -2.63% [signal inhibitor] | –
23 | Cc1cccc(Nc2ncc(NC(=O)c3cccc(F)c3)c(Nc3cccc(C)c3)n2)c1 | inconclusive: 2.12% [signal inhibitor] | –
24 | NS(=O)(=O)c1ccc(CCNC(=O)c2ccc3nc(CCc4ccccc4)oc3c2)cc1 | inactive | –

Row | Structure (SMILES) | IkBa stabilization activation | Potency
25 | CCCc1nnc(NC(=O)C2CCCO2)s1 (stereo unspecified) | inconclusive: 2.69% [signal inhibitor] | –
26 | CCOC(=O)c1c(S(=O)(=O)NCC(=O)Nc2ccc(C)c(N(C)C)c2)c(C)n(C)c1C | inactive | –
27 | N#CC1=C(SCC(=O)c2cc3ccccc3oc2=O)NC(=O)C(C#N)C12CCCC2 (stereo unspecified) | – | inconclusive: 12.6 µM [signal inhibitor, partial curve]
28 | Cc1ccc(S(=O)(=O)c2cn(CC(=O)Nc3ccccc3C)c3cc4c(cc3c2=O)OCO4)cc1 | inconclusive: 0.502% [signal inhibitor] | –
29 | CC/C=C1/OC(=O)c2ccccc21 | inactive | –
30 | Cc1ccc(Cl)cc1NC(=O)C1CCCN(S(=O)(=O)c2cccc3cccnc23)C1 (stereo unspecified) | inconclusive: 1.94% [signal inhibitor] | –
31 | Cc1ccccc1NC(=O)c1c(NC(=O)c2ccco2)sc2c1CCC(C(C)(C)C)C2 (stereo unspecified) | inconclusive: 5.46% [signal inhibitor] | –
32 | COc1ccc(N2C(=O)CS(=O)(=O)C23C(=O)N(Cc2ccc(F)cc2)c2ccc(C)cc23)cc1 (stereo unspecified) | inconclusive: 2.42% [signal inhibitor] | –
33 | COc1ccccc1CNC(=O)CSc1nc2nc(C)c(Cc3ccccc3Cl)c(C)n2n1 | inconclusive: 2.36% [signal inhibitor] | –
34 | COc1ccc(CCNC(=O)c2cccc(-n3cnc4cccnc43)c2C)cc1OC | inconclusive: -0.291% [signal inhibitor] | –
35 | CCCCNC(=O)c1nn(-c2ccc(C)cc2)c(=O)n(C)c1=O | inactive | –
36 | Cc1noc(C)c1S(=O)(=O)N1CCCC(C(=O)Nc2ccc(Cl)cn2)C1 (stereo unspecified) | inconclusive: 0.728% [signal inhibitor] | –
37 | COc1cc(C(Nc2ccccn2)c2ccc3ccc(C)nc3c2O)cc(OC)c1O (stereo unspecified) | – | inconclusive: 3.98 µM [signal inhibitor, partial curve]
38 | COc1cccc(-c2ccc3ncnc(N4CCOCC4)c3c2)c1 | inactive: -2.14% [at 11.4 µM, scaled: untreated 0%, proteasome inhibitor 100%] | –
39 | COC(=O)c1ccccc1NC(=O)c1ccc(F)cc1 | inconclusive: 2.76% [signal inhibitor] | –
40 | Cc1ccccc1CNC(=O)c1cccc(NC(=O)N2CCSc3ncccc32)c1 | inconclusive: 1.55% [signal inhibitor] | –
41 | O=c1sc2ccccc2n1COc1ccccc1 | inactive | –
42 | CC1(C)CC(=O)C(C(c2cccc(O)c2O)C2C(=O)CC(C)(C)CC2=O)C(=O)C1 | inactive: 1.18% [at 11.4 µM, scaled: untreated 0%, proteasome inhibitor 100%] | –
43 | O=C(Cc1ccccc1)N1CCC(c2nc3ccccc3[nH]2)CC1 | inactive | –
44 | COC(=O)C1=C(NC(=O)c2cccc(OC)c2)CCS1 | inactive | –
45 | Clc1ccc(Oc2nc(Oc3ccc(Cl)cc3)nc(N3CCOCC3)n2)cc1 | inactive | –
46 | Cc1ccc(-n2nc(C)c3c2OC(N)=C(C#N)C3c2ccoc2)cc1 (stereo unspecified) | inconclusive: 9.46% [signal inhibitor] | –
47 | Cc1cnc(NC(=O)CN2CCN(c3ccccn3)CC2)s1 | inconclusive: -2.48% [signal inhibitor] | –
48 | COc1cccc(NS(=O)(=O)c2ccc3c(c2)[C@H]2C=CC[C@H]2[C@@H](c2ccccc2Cl)N3)c1 | inconclusive: 15.5% [signal inhibitor] | –

Row | Structure (SMILES) | IkBa stabilization activation | Potency
49 | Cc1cccn2c(Nc3ccccc3)c(-c3cccs3)nc12 | inconclusive: 3.27% [signal inhibitor] | –
50 | CCOC(=O)c1cnc(NCc2ccccc2)nc1C | inactive | –
51 | Cc1[nH]c2ccccc2c1C(c1ccccc1)c1ccc(Cl)s1 (stereo unspecified) | inconclusive: 0.6% [signal inhibitor] | –
52 | COc1cccc(CNC(=O)Cc2ccc(NC(=O)N3CCSc4ncccc43)cc2)c1OC | inconclusive: 0.0467% [signal inhibitor] | –
53 | Cc1cccc(N2CCN(C(=O)CN3C(=O)COc4ccc(S(=O)(=O)N5CCC(C)CC5)cc43)CC2C)c1 (stereo unspecified) | inconclusive: 0.687% [signal inhibitor] | –
54 | CCOC(=O)N1CCN(Cc2nc3cc([N+](=O)[O-])ccc3n2C(C)C)CC1 | inconclusive: 0.534% [signal inhibitor] | –
55 | Cc1cccc(N2CCN(C(=O)C3CCCN(S(=O)(=O)c4ccc(Br)s4)C3)CC2)c1C (stereo unspecified) | inactive | –
56 | CCOC(=O)C1CCC(CN(Cc2ccc(Cl)cc2)S(=O)(=O)c2cc(Cl)cc(Cl)c2)CC1 (stereo unspecified) | inactive | –
57 | C#CCN1C(C)=C(C(=O)OC)[C@@H](c2cccc([N+](=O)[O-])c2)C(C(=O)OCC)=C1C | inactive | –
58 | O=c1c(-c2ccc(Cl)cc2)nc2cnc(N3CCNCC3)nc2n1CCc1ccccc1 | inactive: -2.22% [at 11.4 µM, scaled: untreated 0%, proteasome inhibitor 100%] | –
59 | Cc1ccc2scc(N3CCC(C)CC3)c(=O)c2c1 | inactive | –
60 | O=c1cnc2cnc(Oc3cccc(Cl)c3)nc2n1CCc1ccccc1 | inactive: -2.96% [at 11.4 µM, scaled: untreated 0%, proteasome inhibitor 100%] | –
61 | Cn1c(=O)c2c(nc(SCC(=O)Nc3ccc(F)cc3)n2Cc2ccccc2F)n(C)c1=O | inactive | –
62 | CC(C)c1cc(Nc2cccc(O)c2)cc(C(C)C)c1O | inconclusive: 10.4% [signal inhibitor] | –
63 | O=C(Cc1coc2cc3c(cc12)CCC3)OCc1cc(=O)n2c(n1)sc1ccccc12 | inconclusive: 7.01% [signal inhibitor] | –
64 | O=C(COC(=O)CCCc1c[nH]c2ccccc12)Nc1ccc2c(c1)OCO2 | inactive | –
65 | CC1N=C2c3ccccc3N=C(SCc3cc(=O)n4ccccc4n3)N2C1=O (stereo unspecified) | inactive | –
66 | CC(=O)N1CCc2c(sc3c2c(=O)n(Cc2ccccc2)c(=O)n3Cc2ccccc2F)C1 | inconclusive: 3.96% [signal inhibitor] | –
67 | O=C(Cc1cccs1)Nc1c(C(=O)Nc2ccc(F)cc2)oc2ccccc12 | inconclusive: 6.99% [signal inhibitor] | –
68 | Cc1ccc(OCc2nnc(SCc3nc4ccccc4[nH]3)n2Cc2ccco2)cc1 | inconclusive: 1.75% [signal inhibitor] | –
69 | COc1ccc(CCC(=O)NCc2ccc3c(c2)CCN3C(=O)c2ccccc2)cc1 | inconclusive: 2.41% [signal inhibitor] | –
70 | Cc1cnc(NC(=O)CSc2nc3ccccc3c(=O)[nH]2)s1 | inconclusive: 12.3% [signal inhibitor] | –
71 | CC(C)(C)OC(=O)N1CCc2nc(N3CCN(c4ncccn4)CC3)ncc2C1 | inconclusive: -1.34% [signal inhibitor] | –
